First the molecules themselves.
B1: Ankyrin-G 24 ANK repeats (residues 38-855) (domain or fragment, UniProt O70511 38-855)
chain: KSDANASYLRAARAGHLEKALDYIKNGVDVNICNQNGLNALHLASKEGHVEVVSELLQREANVDAATKKGNTALHIASLAGQAEVVKVLVTNGANVNAQSQNGFTPLYMAAQENHLEVVRFLLDNGASQSLATEDGFTPLAVALQQGHDQVVSLLLENDTKGKVRLPALHIAARKDDTKAAALLLQNDTNADIESKMVVNRATESGFTPLHIAAHYGNINVATLLLNRAAAVDFTARNDITPLHVASKRGNANMVKLLLDRGAKIDAKTRDGLTPLHCGARSGHEQVVEMLLDRAAPILSKTKNGLSPLHMATQGDHLNCVQLLLQHNVPVDDVTNDYLTALHVAAHCGHYKVAKVLLDKKANPNAKALNGFTPLHIACKKNRIRVMELLLKHGASIQAVTESGLTPIHVAAFMGHVNIVSQLMHHGASPNTTNVRGETALHMAARSGQAEVVRYLVQDGAQVEAKAKDDQTPLHISARLGKADIVQQLLQQGASPNAATTSGYTPLHLSAREGHEDVAAFLLDHGASLSITTKKGFTPLHVAAKYGKLEVASLLLQKSASPDAAGKSGLTPLHVAAHYDNQKVALLLLDQGASPHAAAKNGYTPLHIAAKKNQMDIATSLLEYGADANAVTRQGIASVHLAAQEGHVDMVSLLLSRNANVNLSNKSGLTPLHLAAQEDRVNVAEVLVNQGAHVDAQTKMGYTPLHVGCHYGNIKIVNFLLQHSAKVNAKTKNGYTPLHQAAQQGHTHIINVLLQNNASPNELTVNGNTALAIARRLGYISVVDTLKVVTEEIMTTTTITEKHKMNVPETMNEVLDMS

The chains behind the UniProt entries cited, without tags or fusion partners. Where a name states a change or a piece, a line headed by the entry shows the natural chain unless it says otherwise. Residues count along the entry.
UniProt P09803, residues 734-884: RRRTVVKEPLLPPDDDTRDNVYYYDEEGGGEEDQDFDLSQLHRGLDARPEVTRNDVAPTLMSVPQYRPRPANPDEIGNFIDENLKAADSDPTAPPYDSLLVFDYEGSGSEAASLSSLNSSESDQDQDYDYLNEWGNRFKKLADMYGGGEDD

These are yes or no findings as the source states them, for the method shown. Some results given as binding are weak or reduced against the parent protein; the word gives no strength.

The first experiment concerns the target E-cadherin C-terminal domain (residues 734-884) (mouse) (UniProt P09803). In words: SEC-MALS; analytical gel filtration with static light scattering; AnkG R1-24, E-cadherin CTD and β-catenin 1-781 mixed at 1:1:1, 2:1:1, 3:1:1 and 4:1:1 molar ratios; also E-cadherin CTD with β-catenin 1-781 alone; both purified.
Consider B1, for which the binding result is “binds”.

The next experiment has the same target. In words: NMR titration; [1H,15N]-HSQC of 100 μM 15N-labelled E-cadherin CTD with 50 μM or 100 μM unlabelled AnkG R1-24; 100 mM phosphate, 100 mM NaCl, pH 7.2; 283 K; both purified.
As to B1, the binding entry is on record as “binds”.

A further experiment concerns the target Ankyrin-G 24 ANK repeats (residues 38-855) (UniProt O70511). Kind of experiment: ITC; E-cadherin proteins in the syringe (e.g. 200 μM Trx-E-cadherin) titrated into AnkG in the cell (e.g. 20 μM Trx-AnkG R1-24); 25 °C; 50 mM Tris, 100 mM NaCl, 1 mM EDTA, 1 mM DTT, pH 7.8; one-site binding model; both purified.
For YYADEEGGGEEDQDFD (domain or fragment, UniProt P09803 755-770) [E-cadherin site-1 Y757A], the binding entry is reported as “binds”. YAYDEEGGGEEDQDFD (domain or fragment, UniProt P09803 755-770) [E-cadherin site-1 Y756A]: the binding entry is “binds”.

Take AYYDEEGGGEEDQDFD (domain or fragment, UniProt P09803 755-770) [E-cadherin site-1 Y755A]: the binding entry is recorded as “binds”.

Regarding ESDQDQDADYLNEWGN (domain or fragment, UniProt P09803 854-869) [E-cadherin site-3 Y861A], the binding entry is listed as “binds”.

Regarding PADSLLVFDYEGSGS (domain or fragment, UniProt P09803 828-842) [E-cadherin site-2 Y829A], the binding entry is given as “binds”.

For PYDSLLVFDAEGSGS (domain or fragment, UniProt P09803 828-842) [E-cadherin site-2 Y837A], the binding result is recorded as “binds”. The same measure, in the same setting: then ESDQDQDYDALNEWGN (domain or fragment, UniProt P09803 854-869) [E-cadherin site-3 Y863A], with “binds”. On to AAADEEGGGEEDQDFD (domain or fragment, UniProt P09803 755-770) [E-cadherin site-1 Y755A, Y756A, and Y757A], for which the binding entry is on record as “no binding”. For the molecule ESDQDQDYDYLNEAGN (domain or fragment, UniProt P09803 854-869) [E-cadherin site-3 W867A], the binding entry is given as “binds”.

In the case of ESDQDQDADALNEAGN (domain or fragment, UniProt P09803 854-869) [E-cadherin site-3 Y861A, Y863A, and W867A], the binding entry is “no binding”. With PADSLLVFDAEGSGS (domain or fragment, UniProt P09803 828-842) [E-cadherin site-2 Y829A and Y837A], the binding result was “no binding”.

The values are drawn from publication PMC10611751.
